Experimental findings from the antibiotic and cytotoxicity screens of Wong et al. (2023) are described below.

For one test, the system named is HSkMC. Briefly: cytotoxicity call (relative viability < 0.9). To be noted: 10 µM.
In another test the test system is HepG2. Briefly: cytotoxicity call (relative viability < 0.9). The following applies: 10 µM.
In the next test the test system is S. aureus RN4220. Briefly: growth inhibition call (relative growth <= 0.2). The following applies: 50 µM.

Some of the results follow.

On to `CCn1c(N)c(C(N)=O)sc1=S`, for which the cytotoxicity call in the test on HSkMC and with HepG2 was “inactive” throughout. Also, the growth inhibition call with S. aureus RN4220 was “inactive”.
As for `COc1ccc2c3c(n(c2c1)C)[C@@H](CO)N(C[C@]13CN(Cc2ccncc2)C1)C(=O)CN1CCOCC1`, the cytotoxicity call with HSkMC and in the test on HepG2 was “inactive” throughout. Besides, the growth inhibition call with S. aureus RN4220 was “inactive”.
In the case of `COc1ccc(NC(=O)N(C)C[C@H]2Oc3c(NC(=O)Nc4ccc(C(F)(F)F)cc4)cccc3C(=O)N([C@@H](C)CO)C[C@H]2C)cc1`, the cytotoxicity call in the test on HSkMC is “inactive”. The cytotoxicity call in the test with HepG2 was “active”. Moreover, in the test on S. aureus RN4220, the growth inhibition call is “inactive”.
As for `C[C@@H]1CN([C@H](C)CO)C(=O)c2cc(NC(=O)C3CCCCC3)ccc2O[C@H]1CN(C)Cc1ccc(-c2ccccc2)cc1`, the cytotoxicity call in the test on HSkMC and in the test with HepG2 was “inactive” throughout. For the same compound, the growth inhibition call with S. aureus RN4220 was “inactive”.
For `CC(C)NC(=O)Nc1ccc2c(c1)C(=O)N([C@H](C)CO)C[C@@H](C)[C@@H](CN(C)Cc1ccc(C(F)(F)F)cc1)OCCCC[C@@H](C)O2`, the cytotoxicity call with HSkMC and with HepG2 was “inactive” in each case. Also, the growth inhibition call with S. aureus RN4220 was “inactive”.
Consider `C[C@@H]1CCCCO[C@@H](CN(C)C)[C@@H](C)CN([C@@H](C)CO)C(=O)c2cc(NC(=O)Nc3cccc4ccccc34)ccc2O1`, for which the cytotoxicity call in the test with HSkMC and in the test on HepG2 was “inactive” in each case. Further, in the test on S. aureus RN4220, the growth inhibition call was “inactive”.
Regarding `Cc1ccc(S[C@]2(C(=O)NCC(F)(F)F)CC(=O)N(Cc3ccccc3C(F)(F)F)[C@@H]2c2ccc(CO)cc2I)cc1`, the cytotoxicity call in the test with HSkMC and with HepG2 was “inactive” in each case. In addition, the growth inhibition call with S. aureus RN4220 was “inactive”.
Turning to `CN1CCC2(CC1)CN(C(=O)CNC(N)=O)CCCN2C`, the cytotoxicity call in the test on HSkMC and with HepG2 was “inactive” in each case. In addition, the growth inhibition call in the test with S. aureus RN4220 is “inactive”.
With `COc1ccc(NC(=O)N(C)C[C@@H]2Oc3ccc(NC(=O)C4CC4)cc3CC(=O)N([C@H](C)CO)C[C@@H]2C)cc1`, the cytotoxicity call in the test on HSkMC and in the test with HepG2 was “inactive” throughout. In the test on S. aureus RN4220, the growth inhibition call was “inactive”.
`O=C1CN(S(=O)(=O)Cc2ccccc2)C[C@H]2[C@H](c3ccc(C#Cc4cccc(F)c4)cc3)[C@@H](CO)N12`: the cytotoxicity call with HSkMC was “inactive”. Further, in the test with HepG2, the cytotoxicity call was “active”. In the test on S. aureus RN4220, the growth inhibition call was “inactive”.
Take `Clc1ccc2sc(Sc3ccccc3)nc2c1`: the cytotoxicity call in the test on HSkMC and in the test with HepG2 was “inactive” each time. Besides, the growth inhibition call in the test with S. aureus RN4220 is “inactive”.
On to `C[C@@H]1CN([C@@H](C)CO)C(=O)CCCn2nncc2CO[C@@H]1CN(C)C(=O)Nc1ccc(C(F)(F)F)cc1`, for which the cytotoxicity call in the test on HSkMC and in the test with HepG2 was “inactive” throughout. In addition, the growth inhibition call in the test with S. aureus RN4220 was “inactive”.
Regarding `COc1ccc(Nc2ccc(-c3ccncc3)s2)cc1Cl`, the cytotoxicity call with HSkMC and in the test on HepG2 was “inactive” each time. Besides, the growth inhibition call in the test with S. aureus RN4220 is “inactive”.
For `OCc1cn(Cc2ccccc2)nn1`, the cytotoxicity call in the test on HSkMC and with HepG2 was “inactive” throughout. Also, the growth inhibition call in the test on S. aureus RN4220 is “inactive”.
For `C/C=C/c1ccc2c(c1)O[C@@H](CN(C)Cc1ccc(C(=O)O)cc1)[C@H](C)CN([C@H](C)CO)S2(=O)=O`, the cytotoxicity call in the test with HSkMC and with HepG2 was “inactive” in each case. The growth inhibition call in the test with S. aureus RN4220 is “inactive”.
On to `O=C(CN1CCOCC1)NCC[C@@H]1CC[C@H](NC(=O)c2ccc3c(c2)OCO3)[C@@H](CO)O1`, for which the cytotoxicity call in the test with HSkMC and with HepG2 was “inactive” in each case. Further, the growth inhibition call in the test on S. aureus RN4220 was “inactive”.
As for `C[C@@H]1CN([C@H](C)CO)C(=O)c2cc(NC(=O)CCC(F)(F)F)ccc2O[C@@H](C)CCCCO[C@H]1CN(C)S(=O)(=O)c1ccc(Cl)cc1`, in the test with HSkMC, the cytotoxicity call is “inactive”. In the test with HepG2, the cytotoxicity call is “active”. Further, in the test on S. aureus RN4220, the growth inhibition call is “inactive”.
With `COc1ccc(CN(C)C[C@H]2OCCCC[C@H](C)Oc3ccc(NC(=O)Nc4ccc(C(F)(F)F)cc4)cc3C(=O)N([C@@H](C)CO)C[C@H]2C)cc1`, the cytotoxicity call with HSkMC and in the test on HepG2 was “active” in each case. In addition, the growth inhibition call in the test with S. aureus RN4220 was “inactive”.
In the case of `C[C@H]1CN([C@@H](C)CO)S(=O)(=O)c2ccc(C#CCN(C)C)cc2O[C@@H]1CN(C)S(=O)(=O)c1cccc(F)c1`, the cytotoxicity call with HSkMC and in the test with HepG2 was “inactive” throughout. Besides, the growth inhibition call in the test on S. aureus RN4220 was “inactive”.
Consider `C=C(C)C1CCC2(CO)CCC3(C)C(CCC4C5(C)CCC(O)C(C)(C)C5CCC43C)C12` (centres undefined), for which the cytotoxicity call with HSkMC and in the test on HepG2 was “active” throughout. In the test with S. aureus RN4220, the growth inhibition call was “inactive”.
With `C[C@H]1CN([C@@H](C)CO)C(=O)c2cc(C#CC3(O)CCCC3)cnc2O[C@H]1CN(C)S(=O)(=O)c1cccc(F)c1`, the cytotoxicity call in the test with HSkMC and in the test with HepG2 was “inactive” each time. Also, the growth inhibition call in the test with S. aureus RN4220 was “inactive”.
Take `CCc1nccn1CC(=O)N[C@H]1C[C@@H](C(=O)OC)N(C)C1`: the cytotoxicity call in the test with HSkMC and with HepG2 was “inactive” each time. For the same compound, the growth inhibition call in the test on S. aureus RN4220 is “inactive”.
Turning to `C[C@@H]1CCCCO[C@H](CN(C)Cc2ccccc2)[C@@H](C)CN([C@H](C)CO)C(=O)c2cc(NC(=O)Nc3cccc4ccccc34)ccc2O1`, the cytotoxicity call in the test on HSkMC and in the test on HepG2 was “inactive” in each case. The growth inhibition call in the test on S. aureus RN4220 is “inactive”.
Consider `C[C@H](CO)N1C[C@H](C)[C@@H](CN(C)Cc2ccncc2)Oc2c(NC(=O)Cn3cnnn3)cccc2C1=O`, for which the cytotoxicity call with HSkMC and in the test with HepG2 was “inactive” in each case. Moreover, in the test with S. aureus RN4220, the growth inhibition call is “inactive”.
`O=C1O[C@@H](c2ccccc2)[C@@H](c2ccccc2)N2[C@@H](c3ccc(OCCO)cc3)[C@]3(C(=O)Nc4ccc(C#CC5=CCCCC5)cc43)[C@@H](C(=O)N3CCN(c4ncccn4)CC3)[C@H]12`: the cytotoxicity call with HSkMC and in the test on HepG2 was “inactive” throughout. Moreover, the growth inhibition call in the test with S. aureus RN4220 is “inactive”.
Turning to `CCC(=O)N1CCO[C@]2(COCCN(CC(=O)NC)C2)C1`, the cytotoxicity call in the test with HSkMC and in the test on HepG2 was “inactive” each time. Further, in the test on S. aureus RN4220, the growth inhibition call was “inactive”.
For `O=C(C[C@@H]1CC=CC[C@@H](NC(=O)OCC2c3ccccc3-c3ccccc32)C(=O)OC[C@@H](Cc2ccccc2)NC1=O)N[C@@H](CO)Cc1ccccc1`, the cytotoxicity call in the test with HSkMC and with HepG2 was “inactive” throughout. In the test with S. aureus RN4220, the growth inhibition call was “inactive”.
As to `C[C@@H]1CN([C@@H](C)CO)C(=O)c2cc(NC(=O)Nc3cccc4ccccc34)ccc2O[C@H]1CN(C)Cc1ccc(-c2ccccc2)cc1`, the cytotoxicity call in the test on HSkMC (human skeletal muscle cells) and with HepG2 was “inactive” each time. In addition, in the test on S. aureus RN4220, the growth inhibition call was “inactive”.
